Hit rate of the full screen: of about 360,000 compounds, about 2,600 (0.72%) were called active. This list was built around the results that the source calls inconclusive (neither active nor inactive); the mix of calls is not that of the screen. Calls follow the shape of the dose curve; as a rule, active = well fitted inhibition curve with a large enough effect; inconclusive = small, poorly fitted or top-dose-only effect; inactive = no such curve, though single readings can be large or run the other way. Where the call is inconclusive, the potency comes from a doubtful curve fit. The source holds several records for some structures; these can differ, active in one and inactive in another.
Assay: Primary qHTS for Inhibitors of ATXN expression; also: nearly all actives have a fitted effect of over 55% in size
Conditions: HEK-293 ATXN2-luciferase reporter, luminescence, 24 h; activity change, negative = inhibition: at 57 µM (top of the series)
Method in brief: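 ATXN2-luciferase reporter cells (luciferase flanked by upstream and downstream ATXN2 gene portions) were treated 24 h at 37 °C with compounds at up to 57 uM. SteadyGlo luminescence gave expression; GF-AFC fluorescence gave viability.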
% is scaled to controls: 0 for no effect and ±100 for the full control effect; potency is read from the fitted curve at half-maximal effect; tags tell the direction and shape of the fitted curve.

| SMILES | Potency | activity change, negative = inhibition |
| --- | --- | --- |
| Cn1nc(-c2ccc(C(=O)Nc3cccc(Cl)c3)cc2)c2ccccc2c1=O | active: 15.8 µM |  |
| CC1(C)C2CCC1(CS(=O)(=O)N1CCC(C(N)=O)CC1)C(=O)C2 (centres undefined) |  | inactive: 0.6% |
| Cc1ccc(S(=O)(=O)c2ccc([N+](=O)[O-])cn2)cc1 | inconclusive: 39.8 µM [inhibitor, single point] |  |
| COc1cc2c(cc1OC)C(c1cccc(Br)c1)CC(=O)N2 (centres undefined) |  | inactive: 5.23% |
| COc1cccc(-c2cc(C(=O)N3C(C)CCCC3C)no2)c1 (centres undefined) |  | inactive: 25.2% |
| Cc1cc(C)c2c(c1)NC(C(=O)O)C1CC=CC21 (centres undefined) |  | inactive: -15.2% |
| O=C(c1ccc2ncsc2c1)N1CCN(c2nc3ccccc3s2)CC1 | inconclusive: 8.91 µM [inhibitor, partial curve, poor fit] |  |
| O=S(=O)(c1ccccc1)N1CCN(c2ccnc3cc(Cl)ccc23)CC1 | active: 12.6 µM |  |
| COc1cccc(NC(=S)N2CCCN(Cc3ccc(F)cc3)C2)c1 | inconclusive: 39.8 µM [inhibitor, single point] |  |
| CN(C)C(=O)[C@H](O)[C@H](Cc1ccccc1)NC(=O)c1cc2cc(Cl)ccc2[nH]1 | inconclusive: 21.7 µM [inhibitor, partial curve] |  |
| C=CCn1c(SCC(=O)Nc2ccc(C(=O)OC(C)C)cc2)nnc1-c1cccs1 | inconclusive: 12.6 µM [inhibitor, partial curve, poor fit] |  |
| O=C(COc1ccccc1)NCC(=O)N/N=C/c1ccc(O)cc1O | inconclusive: 25.1 µM [inhibitor, single point] |  |
| CCCCCCCCCCCCCCCC[n+]1cccc(C(=O)N(CC)CC)c1 | active: 31.6 µM |  |
| COc1cc(-c2noc(-c3ccc(NCC4CCCO4)c([N+](=O)[O-])c3)n2)cc(OC)c1OC (centres undefined) |  | inactive: -9.68% |
| O=C(Cc1ccc(Cl)cc1)Nc1cccc(S(=O)(=O)N2CCCCC2)c1 | inconclusive: 25.1 µM [inhibitor, single point] |  |
| Cc1ccc(C(=O)N2C(=S)C(c3ccc(F)cc3)=NC23CCN(C)CC3)cc1 | active: 22.4 µM |  |
| S=C(N/N=C/c1cccs1)NC1CC2CCC1C2 (centres undefined) |  | inactive: -15.3% |
| COc1ccc(CC(N)c2csc(Nc3nccc(C(F)(F)F)n3)n2)cc1 (centres undefined) | inconclusive: 31.6 µM [inhibitor, single point] |  |
| COc1ccc(Cn2cc3c(-c4ccc(F)cc4)nnc-3c3cc(OC)c(OC)cc32)cc1 | active: 31.6 µM |  |
| C=CCOc1cccc(C(=O)/C=C2/C(=O)Nc3ccccc32)c1 | inconclusive: 22.4 µM [inhibitor, single point] |  |
| Cc1ccc(CNC(=O)CS(=O)(=O)c2cccc3nsnc23)cc1 | inconclusive: 28.2 µM [inhibitor, single point] |  |
| Cc1cccc(NC(=O)[C@@H](NC(=O)[C@@H]2Cc3ccccc3CN2)C(C)C)c1 |  | inactive: 5.98% |

| SMILES | Potency | activity change, negative = inhibition |
| --- | --- | --- |
| CCN(CC)C(=O)CC(c1ccc2c(c1)OCO2)c1c(OC)cc(OC)c2c(-c3ccccc3)cc(=O)oc12 (centres undefined) | inconclusive: 28.2 µM [inhibitor, single point] |  |
| Cc1ccccc1OCc1nc2ccccc2c(=O)n1/N=C/c1cn[nH]c1-c1ccccc1 | inconclusive: 39.8 µM [inhibitor, single point] |  |
| O=[N+]([O-])c1cc(C(F)(F)F)cc([N+](=O)[O-])c1NCCNC(=S)Nc1cccc(F)c1 | inconclusive: 37.7 µM [inhibitor, single point] |  |
| O=C(CCS(=O)(=O)c1ccc(Cl)cc1)NCCN1C(=O)S/C(=C\c2ccccc2F)C1=O |  | inactive: 23.4% |
| O=C(Nc1ccccc1N1CCOCC1)c1ccc(Br)o1 | inconclusive: 20 µM [inhibitor, partial curve, poor fit] |  |
| Cn1nnnc1Sc1ncnc2scc(-c3ccccc3Br)c12 | active: 25.1 µM |  |
| O=C(Nc1ccccc1Cc1ccccc1)c1ccccc1NS(=O)(=O)c1ccc(Cl)s1 | inconclusive: 25.1 µM [inhibitor, single point] |  |
| CCOc1ccc(N2CC(c3nc4ccccc4n3CCOc3ccccc3OC)CC2=O)cc1 (centres undefined) | inconclusive: 39.8 µM [inhibitor, single point] |  |
| COC(=O)c1nc(Cl)c(Cl)nc1N | inconclusive: 22.4 µM [inhibitor, full curve, poor fit] |  |
| CCCn1nnc(NC(=S)NC(=O)/C=C/c2ccco2)n1 |  | inactive: 0.772% |
| NC(=O)CC(NC(=O)c1ccc(Br)cc1)c1ccc(NCc2ccc(F)cc2)c([N+](=O)[O-])c1 (centres undefined) | inconclusive: 39.8 µM [inhibitor, single point] |  |
| CCOC(=O)c1ccc(NC(=O)c2nc(SC)ncc2Cl)cc1 |  | inactive: 3% |
| CCOC(=O)c1ccc(N2C(=O)c3n[nH]c(-c4ccco4)c3C2c2cccc(OC)c2)cc1 (centres undefined) | inconclusive: 39.8 µM [inhibitor, single point] |  |
| CN(C)c1ccc(-c2ccnc3c2CC(C)(C(=O)NCc2ccc(F)c(F)c2)O3)cc1 (centres undefined) | inconclusive: 28.2 µM [inhibitor, partial curve, poor fit] |  |
| Cc1cc(CN2CCN(c3c(Br)cnc4nc(-c5ccc(N6CCN(C)CC6)cc5)[nH]c34)CC2)no1 | inconclusive: 27.3 µM [inhibitor, partial curve] |  |
| O=C(O)C1CSC(c2ccco2)N1 (centres undefined) | inconclusive: 8.91 µM [inhibitor, partial curve] |  |
| O=C(Cc1ccccc1)NNC(=S)NC(=O)c1cccs1 |  | inactive: -21% |
| CC(C)(C)N1NC2(CCCCC2)NC1=S |  | inactive: -3.33% |
| CN(c1ccccc1)S(=O)(=O)c1cccc(NC(=O)c2cccc(C#N)c2)c1 | inconclusive: 31.6 µM [inhibitor, single point] |  |
| COc1ccc(Cl)c2sc(N(CCN(C)C)C(=O)c3ccc4c(c3)OCCO4)nc12 | inconclusive: 15.8 µM [inhibitor, single point] |  |
| CCOC(=O)c1c(-c2ccccc2)nnn1-c1nc(OCC)nc(N2CCCCC2)n1 | inconclusive: 31.6 µM [inhibitor, single point] |  |
| Cc1c(Cl)cccc1NC(=O)N1CCCN(c2nc(-c3ccccc3)ns2)CC1 | inconclusive: 12.6 µM [inhibitor, partial curve] |  |

— PubChem BioAssay AID1745845 (National Center for Advancing Translational Sciences (NCATS), 2022)
